Assay results taken from PubChem BioAssay AID493208 (National Center for Advancing Translational Sciences (NCATS), 2011).
About 340 (0.77%) of roughly 44,000 compounds were called active. Roughly 5% stayed inconclusive and do not appear here. The call rests on the fitted dose curve; in most records, active means well fitted inhibition curve with a large enough effect; inconclusive means small, poorly fitted or top-dose-only effect; inactive means flat fitted curve, though single readings scatter. The list shows a part of the results.

assay: Acumen qHTS Assay for Inhibitors of the mTORC1 Signaling Pathway in MEF (Tsc2-/-, p53-/-) Cells: Sytravon; settings: phospho-rpS6 immunofluorescence/PI, 24 h; series mostly up to 38.3 µM; activity change, negative = inhibition: at the top concentration;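 further: plate controls were DMSO for no effect and rapamycin for full effect; nearly all actives have a fitted effect of over 50% in size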
How it was run: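 Tsc2-/-, p53-/- mouse embryonic fibroblasts (empty-vector line) exposed to compound 24 hrs at 37 C, fixed, immunostained for phospho-rpS6 and counterstained with propidium iodide. Acumen laser scanning gives % positive cells from Alexa 488/PI ratio, thresholded using 7.5 nM rapamycin; PI count gives viability.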

Activity change, negative = inhibition, inactive:
Cn1cc(C(=O)O)c(=O)c2cc(S(=O)(=O)N3CCOCC3)ccc21 -0.412%
CC(=O)N1CCc2c(sc3c2c(=O)n(CCc2ccccc2)c(=O)n3CC(=O)Nc2ccccc2F)C1 2.72%
COc1ccccc1NC(=O)c1oc2ccccc2c1NC(=O)Cc1cccs1 -42%
COc1ccc(-n2c(SCC(=O)c3ccc(Cl)cc3)nc3c([nH]c4ccccc43)c2=O)cc1 2.29%
COc1cc2c(cc1OC)C(c1ccc(Cl)cc1)N(c1cccc(C#N)c1)C(=O)C2 (stereo not given) 1.89%
COc1ccccc1N1CCN(c2ccc(=O)n(CC(=O)Nc3cc(F)ccc3C)n2)CC1 0.0619%
COc1ccc(CCNc2ncnc3onc(-c4ccc(Cl)cc4)c23)c(OC)c1 -2.8%
CCc1ccc(NC(=O)CN2C(=O)C3CCCN3c3ccc(S(=O)(=O)N(CC)CC)cc32)cc1 (stereo not given) 4.48%
Cn1cc(S(=O)(=O)N2CCCCCC2)cc1C(=O)N1CCN(c2ccccc2F)CC1 -3.14%
Cc1c(CC(=O)N2CCCCC2)c(=O)oc2cc(O)ccc12 -2.49%
Cc1ccccc1Nc1sc(C(=O)c2ccccc2)c(N)c1S(C)(=O)=O -0.29%
CCc1ccc(NC(=O)Cn2c(=O)n(CCCC(=O)NCc3ccccc3Cl)c(=O)c3ccccc32)cc1 0.962%
Cc1cc(NC(=O)CSc2nc(-c3cccc(F)c3)nc3c2c(=O)n(C)c(=O)n3C)no1 5.65%
Cc1ccc(-c2nc3cc(NC(=O)Cc4ccc(Cl)cc4)ccc3o2)cc1 -7.62%
CCOC(=O)c1ccc(N2CC3=C(C2=O)C(c2ccc(OC)cc2)NC(=O)N3C)cc1 (stereo not given) 10.5%
COc1ccc2c(Sc3ccc(C)cc3)c(C(=O)NCC(C)c3ccccc3)[nH]c2c1 (stereo not given) 4.01%
COc1ccccc1-c1nc2c(c(SCc3cc(C)ccc3C)n1)Cc1c(CO)cnc(C)c1O2 -4.38%
Cc1ccc(CNC(=O)c2cc3c(=O)oc4ccc(C)cc4c3s2)cc1 0.458%
COc1ccc(N(CC(=O)N2CCN(c3ccccc3F)CC2)S(=O)(=O)c2c(C)noc2C)cc1 0.729%
CCCNC(=O)Cn1nc(-c2ccc(C)c(C)c2)c2cnc3ccc(OC)cc3c21 -3.31%
COc1ccccc1NC(=O)Cn1cnc2ccc(S(=O)(=O)N3CCC(C)CC3)cc2c1=O 6.04%
COc1ccc2oc(=O)c(C(=O)NCCc3c(C)[nH]c4ccc(C)cc34)cc2c1 -10.9%
Cc1cc(OCC(=O)N(Cc2ccc(N(C)C)cc2)Cc2ccco2)cc(C)c1Cl -4.31%
CCOC(=O)c1ccc(OC(=O)c2cn(-c3ccc(C)cc3)c(=O)c3ccccc23)cc1 0.986%
Cc1nn(-c2ccccc2)c(-n2cccc2)c1C(=O)N1CCN(c2ccccc2)CC1 -7.3%
COc1ccc(NC(=O)Cn2c(=O)n(Cc3ccco3)c(=O)c3sc4ccccc4c32)c(OC)c1 -17.1%
Cc1ccc(NC(=O)C2CCCN(C(=O)c3cnn(-c4ccccc4)c3-n3cccc3)C2)cc1 (stereo not given) 2.3%
COCCCN1C(=O)c2[nH]nc(-c3cc(C)ccc3O)c2C1c1ccc(F)cc1 (stereo not given) -7.74%
COc1ccc(CNC(=O)c2cc3sccc3n2Cc2ccc(F)cc2)cc1 -14.4%
O=C(Nc1noc2ccccc12)c1cccc(Cl)c1Cl -1.34%
Cc1ccccc1NC(=O)C(Cc1ccccc1)N1Cc2ccccc2C1=O (stereo not given) 2.57%
Cc1cccc(OCC(=O)Nc2ccc(S(=O)(=O)Nc3onc(C)c3C)cc2)c1C -0.491%
CCc1nnc(NC(=O)CSc2nc3c([nH]c4ccccc43)c(=O)n2-c2ccc(F)cc2)s1 -1.63%
Cc1ccc2oc(=O)c3cc(C(=O)Nc4ccc(C)c(F)c4)sc3c2c1 1.26%
COc1ccccc1/C=C/c1onc(C)c1S(=O)(=O)N1CCC(C(=O)N2CCC(C)CC2)CC1 0.64%
Cc1c(Cl)cccc1NC(=O)c1cc(S(=O)(=O)N2CCCCC2)cn1C -0.647%
Cc1ccc(-n2nc(C)c3c(C)cc(=O)n(CC(=O)Nc4cc(Cl)ccc4C)c32)cc1 -6.74%
Cc1cccn2c(=O)cc(COc3ccc(NC(=O)C(C)C)cc3)nc12 -18.8%
COC(=O)c1sccc1S(=O)(=O)N(CC(=O)Nc1ccccc1C)c1ccc(Cl)cc1 1.82%
Cc1ccccc1NC(=O)CSc1nc2ccc(NC(=O)CCc3ccccc3)cc2s1 -8.07%
COc1ccc(C(=O)NCc2nc(-c3cccc(C)c3)no2)cc1OC -5.34%
Cc1nc(-c2ccc(S(=O)(=O)NCc3ccc(F)cc3)cc2)co1 0.175%
COc1cccc(C(=O)COC(=O)c2cc(-c3cccs3)nc3ccccc23)c1 -1.51%
Cc1cc(NS(=O)(=O)c2cn(C)c(C)n2)ccc1Br -5.2%
Cc1ccccc1OCC(=O)Nc1nnc(SCc2cc(=O)n3cc(Cl)ccc3n2)s1 5.54%
COc1cccc(CNC(=O)CCc2c(C)nc3c4c(C)cc(C)nc4nn3c2C)c1 1.44%
Cc1ccc(C)c(CN2C(=O)c3ccccc3S(=O)(=O)c3ccc(C(=O)NCCc4ccc(Cl)cc4)cc32)c1 -10.7%
Cc1ccc(CCNc2nc3ccccc3c3nc(-c4cccnc4)nn23)cc1 -1.95%
CCc1ccccc1NC(=O)C1CCN(c2nc3ccccc3[nH]2)CC1 1.78%
CCOC(=O)c1c(C)[nH]c(C)c1S(=O)(=O)NCC(=O)NCc1cccc(Br)c1 -8.78%
CC(C)CCSc1nnc2n(-c3ccccc3)c(=O)c3c4c(sc3n12)CC(C)CC4 (stereo not given) 13.3%
COC(=O)c1ccccc1N(C)S(=O)(=O)c1cc2c3c(c1)CC(=O)N3CCC2 0%
CCc1ccc(NC(=O)Cn2c(=O)nc(-c3ccccc3F)c3cc(Cl)ccc32)cc1 0%
Cc1cc(C)nc(-n2nc(C)c3c2N(Cc2ccccc2C)C(=O)CC3c2ccc(Cl)cc2)n1 (stereo not given) -0.795%
O=C(Nc1ccc(Oc2ccccc2)cc1)c1ccc(F)c(S(=O)(=O)N2CCN(c3ccccc3F)CC2)c1 12.4%
Cc1ccc2cc3cc(C(=O)N4CCN(c5ccccc5)CC4)sc3nc2c1 -13.6%
COc1cccc(NC(=O)/C(C#N)=C/c2ccc(-c3ccc(C)cc3)o2)c1 -15%
O=C(Cn1cc(S(=O)(=O)Cc2cccc(Cl)c2)c2ccccc21)NCc1ccccc1Cl -1.64%
CCn1cc(C(=O)N2CCN(c3cccc(C)c3)C(C)C2)c(=O)c2cc(S(=O)(=O)N3CCOCC3)ccc21 (stereo not given) -20.7%
COc1ccc(-c2nsc(NC(=O)c3oc4ccccc4c3C)n2)cc1 1.59%
CCCNc1ncnc2c1c(-c1ccccc1)cn2-c1ccccc1 9.94%
O=C(Cn1ccc2cc(S(=O)(=O)N3CCCCCC3)ccc21)NCc1cccc(Cl)c1 -7.96%
Cc1coc2c(C)c3oc(=O)c(CCC(=O)N4CCCCC4)c(C)c3cc12 3.7%
N#Cc1ccccc1OCC(=O)N1CCN(c2ccccc2)CC1 1.34%
CN(C)c1ccc(CNC(=O)CCCN2C(=O)CCn3nc(-c4cn(C)c5ccccc45)cc32)cc1 -0.413%
Cc1c(NS(=O)(=O)c2ccc(Cl)cc2)c(=O)n(-c2ccccc2)n1C 2.23%
Cc1nc2c(c(C)c1CCC(=O)Nc1ccc(F)cc1)c(=O)n(C)c(=O)n2C -9.54%
CCc1cccc(-n2nnc(S(=O)(=O)c3ccc(OC)cc3)c2C)c1 -12.5%
COc1ccc(C2=NN(CCC(=O)NCCc3ccccc3)C(=O)CC2)cc1 -7.47%
COCCn1c(C)cc(O)c(C(c2ccccc2F)N2CCN(c3ccccc3)CC2)c1=O (stereo not given) -20.4%
Cc1ccc(Cn2cc(CCC(=O)NCC(C)c3ccccc3)c3ccccc32)cc1 (stereo not given) 0%
COc1ccc(NC(=O)Cn2nnc(-c3nc(-c4ccncc4)no3)c2N)cc1OC -8.17%
Cc1cccc(C)c1NC(=O)C1CCCN1S(=O)(=O)c1cccc2nsnc12 (stereo not given) -9.7%
Cc1ccc(NC(=O)c2cccc(NC(=O)N3CCSc4ncccc43)c2)cc1F 0.114%
CCOc1ccc(CNC(=O)c2ccc(NC(=O)N3CCSc4ncccc43)cc2)cc1 -10.5%
CCCN1C(=O)c2oc3cc(C)cc(C)c3c(=O)c2C1c1ccc(F)cc1 (stereo not given) 0.814%
COc1ccc(-c2cc(C(F)(F)F)nc(SCC(=O)Nc3ccc(O)cc3)n2)cc1OC -0.492%
Cc1ccc(C)c(NC(=O)c2cnc3sc(N4CCOCC4)nn3c2=O)c1 -11.5%
CCN(CC)CCCNC(=O)CCc1c(C)nc2c(c1C)c(=O)n(C)c(=O)n2C -10.6%
COc1ccc(-c2nc3cc(NC(=O)COc4ccc(C)c(C)c4)ccc3o2)cc1 -0.22%
Cc1cc(=O)c2cc(C(=O)Nc3cccc(C)c3C)ccc2[nH]1 0.0248%
CCOc1ccc(C(=O)NCCc2sc(-c3ccc(F)cc3)nc2C)cc1 0.901%
COc1ccc(Nc2ncc(C(=O)N3CCN(c4ccccc4OC)CC3)c3ccccc23)cc1 4.09%
CCOC(=O)c1ccc(NC(=O)CN2C(=O)c3cccnc3Sc3ccccc32)cc1 -21%
O=C(Cn1ncc2c3ccccc3n(Cc3cccc(Cl)c3)c2c1=O)NCCC1=CCCCC1 2.68%
Cc1ccccc1Cn1c(=O)n(CCCCCC(=O)NCc2ccc3c(c2)OCO3)c(=O)c2sccc21 -12.5%
CCN(CC)c1ccc(CNS(=O)(=O)c2cc3c(cc2C)NC(=O)CO3)cc1 14.1%
COc1ccc(NC(=O)CSc2ncc3c(n2)-c2ccccc2N(C)S3(=O)=O)cc1Cl 6.56%
Cn1c(SCc2ccccc2Cl)nc(=O)c2c1NC(=O)CC2c1cc(F)ccc1F (stereo not given) -3.3%
CCOc1ccc(NC(=O)Nc2c[nH]c(=O)[nH]c2=O)cc1 0.217%
CCOC(=O)c1ccccc1NC(=O)Cn1c(=O)n(-c2ccc(CC)cc2)c(=O)c2c(C)c(C(=O)N(C)C)sc21 -5.19%
CCOc1ccccc1CNC(=O)c1ccc2c(c1)nc1n2CCC(C)C1 (stereo not given) 0%
CC(C)Sc1nc2sc3c(c2c(=O)n1-c1ccccc1)CCCC3 3.58%
CC(=O)c1ccc(N2C(=O)Nc3ccccc3S2(=O)=O)cc1 0.666%
Cc1ccc(N2CC(NC(=O)c3ccccc3Br)CC2=O)cc1 (stereo not given) -8%
